# Several values for one entry are separate records, joined by “and”; a condition that tells them apart may be missing. Equal entries are not always repeated. The whole screen tested about 16,000 compounds, of which about 120 (0.75%) were called active. Inconclusive results, whose numbers are uncertain, are shown with a selection of clear calls. The call rests on the fitted dose curve; in most records, active means well fitted inhibition curve with a large enough effect; inconclusive means small, poorly fitted or top-dose-only effect; inactive means no such curve, though single readings can be large or run the other way. A potency beside an inconclusive call is a rough fit, not a confirmed value. Some compounds were tested as several samples or in several runs, with calls that do not always agree.
# Biological target: Rap guanine nucleotide exchange factor 3 (Homo sapiens) (UniProt O95398)
# Sequence of UniProt O95398 (O95398 whole entry, looked up): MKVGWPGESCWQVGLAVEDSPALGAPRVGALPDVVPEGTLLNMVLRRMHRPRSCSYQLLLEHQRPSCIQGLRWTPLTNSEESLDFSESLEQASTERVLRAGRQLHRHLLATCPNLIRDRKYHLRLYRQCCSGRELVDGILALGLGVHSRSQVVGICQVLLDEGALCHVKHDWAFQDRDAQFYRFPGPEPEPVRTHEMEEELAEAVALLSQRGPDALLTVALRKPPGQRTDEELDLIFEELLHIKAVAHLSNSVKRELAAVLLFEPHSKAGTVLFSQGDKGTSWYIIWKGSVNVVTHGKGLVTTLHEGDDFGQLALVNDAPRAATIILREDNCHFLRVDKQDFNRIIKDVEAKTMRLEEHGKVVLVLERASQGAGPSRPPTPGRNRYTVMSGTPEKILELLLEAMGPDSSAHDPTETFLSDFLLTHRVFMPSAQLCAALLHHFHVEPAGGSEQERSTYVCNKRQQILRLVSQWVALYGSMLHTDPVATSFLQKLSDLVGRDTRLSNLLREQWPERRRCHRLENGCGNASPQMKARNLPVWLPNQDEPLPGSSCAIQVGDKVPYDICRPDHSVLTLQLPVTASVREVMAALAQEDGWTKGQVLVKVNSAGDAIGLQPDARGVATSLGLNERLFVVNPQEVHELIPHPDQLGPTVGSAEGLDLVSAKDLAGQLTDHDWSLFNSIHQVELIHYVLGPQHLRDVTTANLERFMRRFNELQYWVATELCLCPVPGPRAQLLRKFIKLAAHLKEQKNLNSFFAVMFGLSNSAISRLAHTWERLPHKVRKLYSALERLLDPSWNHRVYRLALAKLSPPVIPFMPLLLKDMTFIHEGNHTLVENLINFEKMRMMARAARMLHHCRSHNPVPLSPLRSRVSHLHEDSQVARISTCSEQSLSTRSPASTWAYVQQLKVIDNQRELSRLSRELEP
# Test: Validation qHTS for antagonist of cAMP-regulated guanine nucleotide exchange factor 3 (EPAC1); further: nearly all actives have a fitted effect of over 75% in size;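 on activity change, negative = inhibition: plate controls were DMSO for no effect and ATA control for full effect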
# Details: EPAC1 Rap1B-BODIPY-GDP exchange, fluorescence; activity change, negative = inhibition: at 150 µM (top of the series)
# Method in brief: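 Nucleotide exchange followed as fluorescence loss when BODIPY-GDP leaves Rap1B (480 nm excitation, 540 nm emission), read at 5 min intervals over 30 min. Reaction: 100 nM EPAC1, 250 nM RAP1B-BODIPY-GDP, 50 uM GDP; ATA and DMSO define normalization.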
# Potency means the concentration at half of the fitted maximal effect; tags describe the fitted curve by direction and shape.
Structure (SMILES),Potency,"activity change, negative = inhibition"
O=S(=O)(O)c1cc(O)c2c(N=Nc3ccc(Nc4ccccc4)c4c(S(=O)(=O)O)cccc34)cc(S(=O)(=O)O)cc2c1,"inconclusive: 50.1 µM [inhibitor, partial curve, poor fit]",
CC(=O)CC(c1ccccc1)c1c(O)c2ccccc2oc1=O (configuration not stated),inactive,
Cc1cc(O)c(C=O)c(O)c1C(=O)O,,inactive: -4.66%
O=C(Nc1cccc(F)c1)N1CCCC2(CCN(C(=O)c3cc(C(F)(F)F)cc(C(F)(F)F)c3)CC2)C1,"inconclusive: 56.2 µM [inhibitor, partial curve]",
O=C1C=CC2=C3c4cc(O)c(O)cc4C[C@]3(O)COC2=C1,,inactive: -29.8%
COC1=CC(=O)C(C(=O)c2ccccc2)=CC1=O,"inconclusive: 112 µM [inhibitor, single point]",
CC(C)CCCC(C)C1CCC2C3CC(=O)[C@H]4CC(O)CC[C@]4(C)C3CC[C@@]12C (some centres not stated),"inconclusive: 126 µM [inhibitor, single point]",
CCN1CCN(C(=O)c2sc3ncnc(NCC4CCCO4)c3c2C)CC1 (configuration not stated),,inactive: 16.7%
C[C@@H]1NC(=O)OC1c1ccco1 (some centres not stated),,inactive: 10.5%
Nc1nc2ncc(CNc3ccc(C(=O)N[C@@H](CCC(=O)O)C(=O)O)cc3)nc2c(=O)[nH]1,"inconclusive: 22.4 µM [inhibitor, single point]",
O=c1cc(-c2ccc(O)c(O)c2)oc2ccccc12,"inconclusive: 126 µM [inhibitor, single point]",
N#C/C(=C\c1ccc(O)c(O)c1)C(=O)NCCCc1ccccc1,active: 63.1 µM and inactive,
CC(=O)Oc1cc(-c2coc3cc(OC(C)=O)c(OC(C)=O)c(OC(C)=O)c3c2=O)cc(OC(C)=O)c1OC(C)=O,"inconclusive: 14.1 µM [inhibitor, partial curve, poor fit]",
O=C(c1cc(C(F)(F)F)cc(C(F)(F)F)c1)N1CCC2(CC1)CCN(c1ccccc1)CC2,"inconclusive: 44.7 µM [inhibitor, partial curve, poor fit]",
Nc1ncnc2c1nc(Br)n2[C@H]1O[C@H]2COP(=O)(O)O[C@H]2[C@@H]1O,active: 2.51 µM,
Oc1cccc(O)c1,"inconclusive: 7.94 µM [inhibitor, full curve, poor fit]",
O=C1C=CC(=O)c2c(O)c(Cl)c(Cl)c(O)c21,"inconclusive: 112 µM [inhibitor, single point]",
CCCCCCCCCCCC[n+]1ccc(C)c2ccccc21,,inactive: -26.9%
COc1cc2c(C)c3c4c(cc(OC)c(OC)c4c2cc1OC)CCN3C,"inconclusive: 50.1 µM [inhibitor, partial curve, poor fit]",

Structure (SMILES),Potency,"activity change, negative = inhibition"
c1cn(-c2ncnc3ccc(-c4ccoc4)cc23)cn1,"inconclusive: 126 µM [inhibitor, single point]",
COc1c(C)c2c(c(O)c1C/C=C(\C)CCC(=O)O)C(=O)OC2,"inconclusive: 7.94 µM [inhibitor, partial curve, poor fit]",
CC(=O)OC1CC[C@]2(C)C(CC(OC(C)=O)[C@@]3(C)C4=CC(=O)OC(c5ccoc5)[C@]4(C)CCC23)C1(C)C (some centres not stated),"inconclusive: 112 µM [inhibitor, single point] and inconclusive: 56.2 µM [inhibitor, full curve]",
CCCCC[C@H]1CN(CCc2ccccc2)C(=O)[C@@H]1CC(=O)NCc1ccc(OC)cc1,"inconclusive: 25.1 µM [inhibitor, full curve]",
O=C(Nc1cccc(C(F)(F)F)c1)c1cc(Br)cc(Br)c1O,"inconclusive: 126 µM [inhibitor, single point]",
CCCCCCCC/C=C\CCCCCCCC(=O)NCCO,"inconclusive: 50.1 µM [inhibitor, partial curve, poor fit]",
CC(C)CC1C(=O)N2CCCC2C2(O)O[C@@](NC(=O)C3C=C4c5cccc6[nH]c(Br)c(c56)CC4N(C)C3)(C(C)C)C(=O)N12 (some centres not stated),"inconclusive: 50.1 µM [inhibitor, partial curve, poor fit]",
COc1ccc2[nH]cc(CCNc3ccnc(-c4ccc(C(=O)N(C)C)cc4)n3)c2c1,"inconclusive: 126 µM [inhibitor, single point]",
CCCC[C@H]1COCCS(=O)(=O)N1Cc1ccc(F)cc1,"inconclusive: 100 µM [inhibitor, partial curve]",
CNCCCC12CCC(c3ccccc31)c1ccccc12,"inconclusive: 28.2 µM [inhibitor, partial curve, poor fit]",
Cc1coc2c1C(=O)C(=O)c1c-2ccc2c1CCCC2(C)C,"inactive and inconclusive: 89.1 µM [inhibitor, partial curve]",
CC(C)(C)[C@@H]1CCC(=O)N(CC[C@H](Sc2ccccc2)c2ccccc2)CC1,"inconclusive: 39.8 µM [inhibitor, partial curve]",
Cc1c(C)c2c(c(C)c1OC(=O)CCC(=O)O)CC[C@@](C)(CCC[C@H](C)CCC[C@H](C)CCCC(C)C)O2,"inconclusive: 50.1 µM [inhibitor, full curve]",
O=c1cc(-c2ccccc2)oc2cc(O)c(O)c(O)c12,"inconclusive: 100 µM [inhibitor, partial curve, poor fit] and inconclusive: 112 µM [inhibitor, single point]",
CN(C)[C@@H]1C(=O)C(C(=O)NCN2CCCC2)=C(O)[C@@]2(O)C(=O)C3=C(O)c4c(O)cccc4[C@@](C)(O)C3C[C@@H]12 (some centres not stated),"inconclusive: 100 µM [inhibitor, partial curve, poor fit]",
OC(c1ccc2c(c1)CN(Cc1c[nH]c3ccccc13)CCO2)c1ccccn1 (configuration not stated),,inactive: 8.66%
CC[C@H](C)C(=O)O[C@H]1C[C@@H](C)C=C2C=C[C@H](C)[C@H](CC[C@@H]3C[C@@H](O)CC(=O)O3)[C@H]21,"inconclusive: 89.1 µM [inhibitor, partial curve, poor fit]",
C/C=C/CC(C)C(O)C1C(=O)NC(CC)C(=O)N(C)CC(=O)N(C)C(CC(C)C)C(=O)NC(C(C)C)C(=O)N(C)C(CC(C)C)C(=O)NC(C)C(=O)NC(C)C(=O)N(C)C(CC(C)C)C(=O)N(C)C(CC(C)C)C(=O)N(C)C(C(C)C)C(=O)N1C (configuration not stated),"inconclusive: 2.82 µM [inhibitor, partial curve, poor fit] and inconclusive: 3.98 µM [inhibitor, single point]",
